Experiments:
[1] = target: MBP (maltose binding protein) (UniProt P0AEX9 = MBP); assay: far-Western (spot on nitrocellulose, anti-MBP antiserum detection)
Description: (§1) After spotting 1 μg of GST or GST-KIAA0596CT on nitrocellulose membranes (Schleicher & Schuell BioScience, BA85), the membranes were incubated at room temperature in TBST (10 mM Tris-HCl, pH 7.5/0.15M NaCl/0.05% Tween 20) containing 5% skim milk. After rinsing the membranes with TBST, they were incubated overnight at 4° C. in TBST containing 1.0 μg/ml of MBP-JNK3 or MBP. After washing the membranes with TBST, bound MBP-JNK3 was detected by immunoblotting using anti-MBP antiserum (New England Biolabs Inc.) as the primary antibody, and HRP-conjugated anti-rabbit IgG antibody (Amersham Pharmacia Biotech, Inc.) as the secondary antibody (FIG. 5). An ECL Western Blotting Detection Kit (Amersham Pharmacia Biotech, Inc.) was used for the detection.

[2] = target: MBP-JNK3 (fusion protein of human JNK3 (JNK3α1) with an N-terminal maltose binding protein) (human, UniProt P53779-2 1-422, limits assumed); assay: as above
Description: as §1

Row | Binder | binding result [1] | binding result [2]
1 | GST-KIAA0596CT (N-terminal GST fusion protein of human KIAA0596CT, the C-terminal region, […], of KIAA0596) (other, Expressed in E. coli BL21-SI from pDEST15 and purified on Glutathione Sepharose 4B; also called fusion protein of KIAA0596CT and GST) [about 200 residues omitted]LSQEEGVFAQDLEPAPIEDGIVYPEPSDNPTMDTSEFQVQAPARGTLGRVYPGSRSSEKHSPDSACSVDYSSSCLSSPEHPTEDSESTEPLSVDGISSDLEEPAEGDEEEEEEEGGMGPYGLQEGSPQTPDQEQFLKQHFETLASGAAPGAPVQVPERSESRSISSRFLLQVQTRPLREPSPSSSSLALMSRPAQVPQASGEQPRGNGANPPGAPPEVEPSSGNPSPQQAASVLLPRCRLNPDSSWAPKRVATASPFSGLQKAQSVHSLVPQERHEASLQAPSPGALLSREIEAQDGLGSLPPADGPPSRPHSYQNPTTSSMAKISRSISVGENLGLVAEPQAHAPIRVSPLSKLALPSRAHLVLDIPKPLPDRPTLAAFSPVTKGRAPGEAEKPGFPVGLGKAHSTTERWACLGEGTTPKPRTECQAHPGPSSPCAQQLPVSSLFQGPENLQPPPPEKTPNPMECTKPGAALSQDSAVSLEQCEQLVAELRGSVRQAVRLYHSVAGCKMPSAEQSRIAQLLRDTFSSVRQELEAVAGAVLSSPGSSPGAVGAEQTQALLEQYSELLLRAVERRMERKL | no binding | –
2 | GST (glutathione S-transferase) (other, Negative control in the far-Western assay and in all kinase assays) not shown | – | no binding (tested: 1.0 µg/ml of MBP-JNK3; 1 µg GST spotted)

— patent publication US20050065082A1 (published 2005)
